Data published in PubChem BioAssay AID1961 (Sanford-Burnham Center for Chemical Genomics, 2009).
About 140 (0.048%) of roughly 290,000 compounds were called active. The shares of active, inactive and inconclusive entries below differ from those in the screen.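 Rule for the calls: active = activation above 40% with more than 50 cells counted in the well; inconclusive = wells holding fewer than 50 cells, flagged as toxic or sparse; inactive = the rest.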

Molecular target: G-protein coupled receptor 55 (Homo sapiens) (UniProt Q9Y2T6)
UniProt Q9Y2T6, sequence (Q9Y2T6 whole entry, looked up): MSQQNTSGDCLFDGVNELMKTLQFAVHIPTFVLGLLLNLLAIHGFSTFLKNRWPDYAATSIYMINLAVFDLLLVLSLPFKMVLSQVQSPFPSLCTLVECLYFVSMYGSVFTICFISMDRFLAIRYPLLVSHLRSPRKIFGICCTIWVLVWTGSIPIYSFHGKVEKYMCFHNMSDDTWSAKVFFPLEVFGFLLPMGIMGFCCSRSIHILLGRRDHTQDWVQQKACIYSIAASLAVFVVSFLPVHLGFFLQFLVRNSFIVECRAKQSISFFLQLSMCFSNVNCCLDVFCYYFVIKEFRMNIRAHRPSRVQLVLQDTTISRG
Experiment: selective activators of receptor GPR55 – imaging, U2OS cells, beta-arrestin-GFP redistribution, primary screen (AID 1961);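 note: U2OS osteosarcoma cells stably expressing GPR55 and beta-arrestin-GFP; plate controls were DMSO negative control for no effect and LPI positive control for full effect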
Conditions: at 10 µM, stronger effect = higher value

Row | Compound | activation
1 | CN(C)/C=N/c1ncc(C(=O)c2ccc(Cl)cc2)s1 | inconclusive: -0.3%
2 | CCC(CC)c1nnc(NC(=O)[C@@H](NC(=O)c2cccc(C)c2)C(C)C)s1 | inconclusive: -0.1%
3 | CCN(CC)S(=O)(=O)c1ccc(N2CCOCC2)c(NCC(=O)Nc2ccc(F)cc2)c1 | inactive: -0.1%
4 | COC(=O)c1ccc(NC(=O)c2ccc(F)cc2)o1 | inconclusive: -0.2%
5 | COc1ccc(C(=O)COC(=O)CCN2C(=O)[C@@H]3[C@H](C2=O)[C@@H]2C[C@H]3C(Br)C2Br)cc1 (some centres not stated) | inconclusive: -0.2%
6 | CCOC(=O)c1c(NC(=O)c2cc3n(n2)C(C(F)(F)F)CC(c2ccccc2)N3)sc(C)c1C (configuration not stated) | inconclusive: -0.2%
7 | CCCOCC(O)COc1ccccc1C(=O)N1CCOCC1 (configuration not stated) | inactive: -0.2%
8 | Cc1nnnn1/C(=C\c1ccccc1)C(=O)OCC(=O)NC(C)(C)C | inactive: -0.3%
9 | O=C(NCc1ccc2c(c1)OCO2)c1nc(Cn2cc([N+](=O)[O-])cn2)no1 | inconclusive: 0%
10 | CCc1nnc(NC(=O)COc2ccc3ccccc3c2)s1 | inconclusive: 0%
11 | CCCCNC(=O)c1nn2cc(Br)cnc2c1Br | inconclusive: -0.3%
12 | Cc1cnc(CN(C)C(=O)c2ccc3oc(Cc4ccc(Cl)cc4)nc3c2)[nH]1 | inconclusive: -0.1%
13 | O=[N+]([O-])c1cc(/C=N/n2c(-c3cccnc3)n[nH]c2=S)ccc1Cl | inconclusive: -0.1%
14 | C=CCn1c(C)cc(C(=O)CSc2nnc(-c3cccc(S(=O)(=O)N(CC)CC)c3)o2)c1C | inconclusive: -0.1%
15 | CCn1nnc(NC(=O)c2ccccc2Br)n1 | inconclusive: -0.1%
16 | CCc1c(C)nc2c(OC)cccc2c1SCCC(=O)O | inconclusive: -0.1%
17 | Fc1cccc(NCCc2c[nH]c3ccccc23)n1 | inactive: -0.2%
18 | CC(C)N1CCN(Cc2ccc(C#CC(C)(C)O)s2)CC1CCO (configuration not stated) | inactive: 0.3%
19 | O=C(CSc1nnc(CCCN2C(=O)c3cccc4cccc(c34)C2=O)n1-c1ccccc1)N1CCN(CCO)CC1 | inconclusive: -0.2%
20 | O=C(COC(=O)/C=C/c1cccc(Cl)c1)NCCc1ccc(Cl)cc1Cl | inactive: 0%
21 | Cc1nc2ccc(NC(=O)CCC3CCCC3)cc2s1 | inactive: -0.1%
22 | COc1ccc(CN2CCNC(=O)C2CC(=O)NC2CCC2)c(OC)c1 (configuration not stated) | inactive: -0.1%

Row | Compound | activation
23 | Cc1ccc2c(c1)C1CN(C)CCC1N2C(=O)COc1ccccc1F (configuration not stated) | inconclusive: 42.8%
24 | N#C/C(=C(/O)COC(=O)c1ccc(C#N)cc1)c1nc2ccccc2s1 | inconclusive: -0.3%
25 | COc1ccc(NC(=O)Nc2ncn(Cc3cccc(C(F)(F)F)c3)n2)cc1OC | inconclusive: -0.2%
26 | C/C(N)=C(/C#N)C(=O)CSc1nc2ccccc2c(=O)n1-c1ccc(C)cc1 | inconclusive: -0.2%
27 | Cc1ccc(SC[C@H](Cc2ccccc2)N2CCN(CCc3ccccc3)CCC2=O)cc1 | inactive: -0.1%
28 | CC(C)Cn1c(N)c(C(=O)COC(=O)c2cc(-c3ccco3)nc3ccccc23)c(=O)n(C)c1=O | inactive: -0.1%
29 | CN(C)c1ccc(C(=O)/C=C/c2ccccc2)cc1 | inactive: -0.3%
30 | Cc1cccc(C(O)(C(=O)NNc2ccc3ccccc3n2)c2cccc(C)c2)c1 | inconclusive: -0.1%
31 | O=C(CSc1ccc2c(c1)OCCO2)Nc1cccnc1Cl | inconclusive: -0.3%
32 | Clc1ccc(OCc2cn3ccccc3n2)c2ncccc12 | inactive: -0.1%
33 | Cc1ccc(N=C2NC(=O)/C(=C\c3ccsc3)S2)c(C)c1 | inconclusive: -0.2%
34 | COc1cc(OC)c(OC)cc1NC(=O)CC1COc2ccccc2O1 (configuration not stated) | inconclusive: -0.3%
35 | CCCc1nnc2n1N=C(c1ccc(-c3cc(Cl)ccc3Cl)o1)CS2 | active: 142%
36 | COc1ccc(C(=O)NCC(=O)N/N=C/c2cccnc2)cc1OC | inactive: -0.2%
37 | Cc1cc(Cl)c(S(=O)(=O)Nc2ccc3c(c2)OCCO3)cc1OCC(=O)NC1CCCCC1 | inconclusive: -0.1%
38 | O=C(Nc1ccc(N2CCN(C(=O)c3ccc(Cl)cc3)CC2)cc1)c1ccc(Br)o1 | inconclusive: -0.2%
39 | Cc1cc(OCC(=O)OCC(=O)Nc2cc(C(F)(F)F)ccc2N2CCOCC2)ccc1Cl | inconclusive: -0.2%
40 | COc1ccc(C2/C=C\CN(C(=O)C3CCCC3)CC(=O)N2Cc2ccc(F)cc2)cc1 (configuration not stated) | inconclusive: -0.1%
41 | CCn1cc(-c2ccnc3cc(C(=O)O)nn23)c(C)n1 | inconclusive: -0.4%
42 | O=C(Nc1cc(C(=O)N2CCOCC2)cc(C(=O)N2CCOCC2)c1)c1cc(F)c(F)cc1Cl | inconclusive: 9.6%
43 | O=[N+]([O-])c1ccc(S(=O)(=O)NCCc2cn3ccccc3n2)cc1 | inconclusive: -0.3%
44 | COc1ccc(Cl)cc1NC(=O)CSc1nnc(COc2ccccc2)n1C | inactive: 0.2%

Row | Compound | activation
45 | CC(C)=CCCC(C)CN1CCC(n2nccc2NC(=O)c2ccc3c(c2)OCO3)CC1 (configuration not stated) | inconclusive: -0.2%
46 | CCOc1ccc(/C=N/NC(=O)C(C)N(c2ccc(OC)cc2)S(C)(=O)=O)cc1OCC (configuration not stated) | inactive: 0.6%
47 | CCOc1ccc(S(=O)(=O)Nc2ccc3c(c2)n(C)c(=O)n3C)cc1 | inconclusive: 0%
48 | Cn1c(SCC(=O)NNC(=O)Nc2ccc(Cl)cc2)nnc1-c1ccccc1 | inactive: -0.1%
49 | O=C(CSc1nc2ccccc2c(=O)n1CC1CCCO1)NCc1ccccc1 (configuration not stated) | inconclusive: 0%
50 | Cc1ccc(-c2ccc(CO)o2)cc1N | inactive: -0.3%
51 | COC(C(=O)N/N=C/c1ccc(OCC(=O)N2CCOCC2)cc1)c1ccccc1 (configuration not stated) | inconclusive: 0%
52 | CN(C)S(=O)(=O)c1cccc(NC(=S)N/N=C/C(=O)c2ccccc2)c1 | inconclusive: -0.2%
53 | COc1cccc(OC)c1C(=O)NC(=S)Nc1ccc2oc(=O)ccc2c1 | inconclusive: -0.1%
54 | Cc1ccc(C)c(CN2C(=O)c3ccccc3S(=O)(=O)c3ccc(C(=O)N4CCN(C)CC4)cc32)c1 | inactive: -0.2%
55 | CN(C(=O)C1CCC(=O)N(CCCN2CCCC2=O)C1)C(C1CC1)C1CC1 (configuration not stated) | inconclusive: -0.1%
56 | COCCN=c1scc(-c2ccccc2)n1/N=C/c1c[nH]c2ccccc12 | inconclusive: -0.1%
57 | O=[N+]([O-])c1ccc(/C=N/NC(=S)Nc2ccccc2)o1 | inconclusive: -0.1%
58 | COc1cccc(CNC(=O)c2cccc(S(=O)(=O)N3CCN(C)CC3)c2)c1 | inactive: 0%
59 | CCn1c(CC(=O)Nc2ccccc2F)nnc1SCC(=O)NC1CCCCC1 | inconclusive: 0%
60 | COc1cc2c(cc1OC)CN(C(=O)c1oc3ccccc3c1C)CC2 | inconclusive: 0%
61 | Cc1nc(Cl)sc1C(=O)Nc1cc(F)cc(F)c1 | inactive: -0.2%
62 | O=[N+]([O-])c1ccc(/C=C/C2=NN(c3ccccc3)C(c3ccco3)C2)cc1 (configuration not stated) | active: 120%
63 | CC(=O)Nc1sc2c(c1C(=O)N1CCOCC1)CCCCC2 | inconclusive: 31.2%
64 | CN(C)c1ccc(/C=C(\NC(=O)c2ccccc2)C(=O)NCc2cccnc2)cc1 | inconclusive: 0%
65 | CC(=O)c1c(C)[nH]c(C(=O)NCCc2c[nH]c3ccccc23)c1C | inactive: -0.1%
66 | O=C(CC1SC(=Nc2ccc3c(c2)OCCO3)NC1=O)Nc1ccc(F)cc1F (configuration not stated) | inconclusive: -0.2%

Row | Compound | activation
67 | Cc1ccc(S(=O)(=O)N(CC(=O)Nc2cccnc2)c2ccccc2C)cc1 | inconclusive: 0%
68 | Cc1ccc2nc3c(cc(C(=O)NCc4ccco4)c(=N)n3C3CCCC3)c(=O)n2c1 | inconclusive: 0%
69 | O=C(COC(=O)CSc1cc(Cl)ccc1Cl)Nc1ncc(C(F)(F)F)cc1Cl | inconclusive: -0.1%
70 | C=CCn1c(SCC(=O)NCCOC)nnc1-c1cc2c(s1)CCC(CC)C2 (configuration not stated) | inconclusive: -0.1%
71 | COc1ccc(NC2CC(=O)N(c3cccc(C)c3)C2=O)cc1 (configuration not stated) | inconclusive: -0.2%
72 | CC(C)C(=O)NCc1cc(-c2ccccc2)no1 | inconclusive: -0.1%
73 | O=C(COC(=O)Cc1c(Cl)cccc1Cl)NCCC1=CCCCC1 | inconclusive: -0.1%
74 | Cc1cccc(OCc2n(CC(=O)OC3CC(C)CCC3C(C)C)c3ccccc3[n+]2C)c1 (configuration not stated) | active: 81.2%
75 | O=C(Nc1ccn(-c2ccccc2)n1)c1ccccc1Br | inconclusive: -0.1%
76 | CC1CCC(NC(=O)c2nc(Cn3ccc([N+](=O)[O-])n3)no2)CC1 (configuration not stated) | inconclusive: 0%
77 | COC(=O)CNC(c1ccccc1)c1cc(Br)ccc1NC(=O)CNC(=O)OCc1ccccc1 (configuration not stated) | inconclusive: -0.2%
78 | C=CCn1c(SCc2cc(=O)n3ccsc3n2)nc2sc(C)c(C)c2c1=O | inconclusive: -0.2%
79 | COc1cc(/C=C2\SC(=S)N(CCC(=O)NC3CCCC3)C2=O)cc(OC)c1OC | inconclusive: 0%
80 | COc1ccc(Nc2nc(Cl)c(C=O)s2)cc1 | inactive: 0.2%
81 | O=C(NCc1ccc2c(c1)OCO2)c1ccc(N2CCCCCC2)c([N+](=O)[O-])c1 | inconclusive: 3.4%
82 | COc1cccc(CN(C)CC(=O)NCc2ccccc2Cl)c1 | inconclusive: -0.1%
83 | CCc1nn(CC(=O)NCCc2ccc(Cl)cc2)c(=O)c2cccn12 | inactive: 0%
84 | O=C(CC1SC(=NCCc2ccccc2)N(/N=C/c2cccs2)C1=O)Nc1ccc(Cl)cc1 (configuration not stated) | inconclusive: -0.1%
85 | COc1ccc(CN2C(=O)c3ccccc3C2=O)cc1 | inactive: 0.6%
86 | COc1ccc(-n2cc(-c3ccccc3)nc2SC)cc1 | inconclusive: -0.2%
87 | Cc1cc(C(=O)Cn2cc(C(F)(F)F)ccc2=O)c(C)n1-c1ccccc1 | inconclusive: -0.2%
